Laboratory results reported in PubChem BioAssay AID652104 (National Center for Advancing Translational Sciences (NCATS), 2013).
Out of some 410,000 compounds screened, about 7,200 (1.8%) were called active. The shares of active, inactive and inconclusive entries below differ from those in the screen. Calls come from the whole dose curve; as a rule, active = well fitted activation curve with a large enough effect; inconclusive = small, poorly fitted or top-dose-only effect, or another doubt; inactive = no such curve, though single readings can be large or run the other way. Potencies beside an inconclusive call are fits to weak or partial responses and may not hold up.

Test: qHTS of TDP-43 Inhibitors; note: nearly all actives have a fitted effect of over 50% in size; for growth rescue (activation): % of control where 0% means no effect
Conditions: TDP-43 expressing yeast growth rescue, BacTiter-Glo, 24 h; growth rescue (activation): at 46.1 µM (top of the series) unless noted
How it was run: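 Growth rescue of TDP-43-toxic yeast measured as ATP luminescence (BacTiter-Glo). Cells grown to mid-log in raffinose, induced in galactose at OD600=0.02, exposed to compound 24 hr at 30 deg C.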
Potency is the fitted concentration of half-maximal effect; tags give direction and shape of the fitted curve.

Structure (SMILES)	Potency	growth rescue (activation)
O=C(CCNc1ccccc1)c1ccc2c(c1)OCO2	inconclusive: 22.4 µM [activator, partial curve]	–
Cc1nc2ccc(C(=O)Nc3ccc(N(C)C)cc3)cc2s1	inconclusive: 11.2 µM [activator, partial curve]	–
COc1cc(N2C(=O)CSC2=S)cc(OC)c1OC	inconclusive: 20 µM [activator, single point]	–
Cc1ccc(S(=O)(=O)NCCSc2nnnn2-c2cc(C)ccc2C)cc1	inconclusive: 17.8 µM [activator, single point]	–
CCOc1ccccc1N(CC)C(=O)c1nn(C)c2c1CSc1ccccc1-2	inconclusive: 6.31 µM [activator, single point]	–
CC(C)c1ccc(NC(=O)c2cc(S(=O)(=O)NCC3COc4ccccc4O3)ccc2F)cc1 (stereo not drawn)	inconclusive: 31.6 µM [activator, single point]	–
COc1cccc(Oc2nc(-c3ccncc3)nc3ccccc23)c1	active: 12.6 µM	–
Cc1ccc(NC(=O)Cn2c(=O)n(CCCCCC(=O)NCc3ccc(F)cc3)c(=O)c3sccc32)cc1C	inactive	–
COc1ccc2c(c1OC)C(=O)OC2CC(=O)c1ccc(O)cc1 (stereo not drawn)	inconclusive: 3.16 µM [activator, full curve, poor fit]	–
Cc1ccc(S(=O)(=O)N2CCN(C(=O)COC(=O)COc3cccc(C(F)(F)F)c3)CC2)c(C)c1	inactive	–
Cc1c(Cl)cccc1NC(=S)N(Cc1ccccc1)Cc1cccnc1	inactive	–
CN(C)c1ccc(CNC(=O)CN2C(=O)CCn3nc(-c4cn(C)c5ccccc45)cc32)cc1	inconclusive: 8.91 µM [activator, partial curve]	–
CC(C(=O)Nc1nc2ccccc2s1)n1cc([N+](=O)[O-])cn1 (stereo not drawn)	inactive	–
CCOC(=O)c1cc(-c2ccc(OC)cc2)n(CCC(=O)Nc2cccc(C(C)=O)c2)c1C	inactive	–
CCC(=O)c1coc2ccc(O)cc12	inconclusive: 35.5 µM [activator, single point]	–
CNC(=S)N1N=C(c2ccc(OC)cc2)CC1c1ccc(Cl)cc1Cl (stereo not drawn)	inactive	–
CCOc1ccc(NC(=S)N2CCN(S(=O)(=O)c3ccc(C)cc3)CC2)cc1	inconclusive: 1.78 µM [activator, partial curve, poor fit]	–
COc1ccc2nc3sc(C(=O)N4CCN(c5ccc(F)cc5)CC4)cc3cc2c1	inactive	–
CCOC(=O)Cc1c(-c2cccc(Cl)c2)nc2c3ccccc3ccn12	active: 12.6 µM	–
c1ccc(-n2nnnc2-c2cccc3ccccc23)cc1	active: 14.1 µM	–
CCOC(=O)N1CCc2c(sc3[nH]c(=S)[nH]c(=S)c23)C1	inconclusive: 17.8 µM [activator, partial curve]	–
CCOc1ccc(NC(=O)N2CCC(C(=O)c3ccc(F)cc3)CC2)cc1	inconclusive: 11.2 µM [activator, partial curve]	–
Cc1cc(C)cc(-n2ncc3c2CCCC3NC(=O)c2ccccc2N2CCOCC2)c1 (stereo not drawn)	inconclusive: 1.78 µM [activator, partial curve]	–
COC(=O)c1cccc(NC(=S)Nc2cccc(Cl)c2C)c1	inconclusive: 14.1 µM [activator, single point]	–
Cc1ccc(CNC(=O)CN2C(=O)CSc3ccc(S(=O)(=O)N4CCCC4)cc32)cc1	inactive	–

Structure (SMILES)	Potency	growth rescue (activation)
COC(=O)c1cccc(Cn2nnc3ccccc3c2=O)c1	inconclusive: 15.8 µM [activator, partial curve, poor fit]	–
NC(=O)CSc1c[nH]c2ccccc12	inactive	–
Cc1ccc(C(=O)Nc2ccccc2C(=O)OCc2cc(=O)n3nc(C4CC4)sc3n2)cc1	inactive	–
COC1=C(Nc2ccccc2OC)C(=O)c2ccccc2C1=O	inactive	–
COc1cc([C@@H]2c3cc4c(cc3[C@@H](O)[C@H]3COC(=O)[C@H]23)OCO4)cc(OC)c1O[Si](C)(C)C(C)(C)C	inactive	–
Cc1ccc(SCC(=O)NC(=O)c2ccccc2Br)c(C)c1	active: 12.6 µM	–
O=C(NCCCO)C(=O)Nc1c2c(nn1-c1ccccc1)CSC2	–	inconclusive: 30.8% [activator] [at 9.22 µM]
COc1ccc(CCNC(=O)c2ccc(-c3ccc([N+](=O)[O-])cc3Cl)o2)cc1OC	inconclusive: 28.2 µM [activator, single point]	–
COc1ccc(-c2noc(CN(C(=O)Cc3ccc(C)cc3)C(C)C)n2)cc1	inconclusive: 35.5 µM [activator, partial curve]	–
O=c1oc2ccccc2cc1NCc1ccccc1O	inconclusive: 28.2 µM [activator, single point]	–
Cc1c(C(=O)NC(Cc2ccccc2)c2nc3ccccc3[nH]2)cccc1[N+](=O)[O-] (stereo not drawn)	inconclusive: 5.62 µM [activator, partial curve]	–
O=C(OCc1nnc(-c2ccccc2)o1)c1cccc(S(=O)(=O)N2CCOCC2)c1	inconclusive: 11.2 µM [activator, partial curve]	–
Cc1ccc(NC(=O)Cn2cc(C(=O)c3ccco3)c3ccccc32)c(C)c1	inactive	–
O=C(Nc1cccc(Cl)c1)c1cc(S(=O)(=O)N2CCCc3ccccc32)ccc1F	inactive	–
CCOc1cc(C2CC(=O)Nc3c2c(=O)nc(SCc2cccc(Cl)c2)n3C)ccc1O (stereo not drawn)	–	inactive: 0% [at 9.22 µM]
N#Cc1c(-c2cccc(Cl)c2)[nH]c(=S)[nH]c1=O	inactive	–
CCN(CC)CCCNC(=O)C(=O)Nc1ccc2nc3n(c(=O)c2c1)CCCCC3	inconclusive: 3.16 µM [activator, partial curve, poor fit]	–
S=C(c1ccc(-c2ccc(Cl)cc2Cl)o1)N1CCCC1	inconclusive: 35.5 µM [activator, partial curve]	–
Cc1ccc(Cn2ccnc2SCC(=O)Nc2ccc3c(c2)OCCO3)cc1	inconclusive: 8.91 µM [activator, partial curve]	–
CC1=CC=CN2C1=NC(=O)CC2(C)C(=O)N(CC(=O)NC1CCCC1)c1cc(C)cc(C)c1 (stereo not drawn)	inconclusive: 11.2 µM [activator, partial curve, poor fit]	–
CCOC(=O)c1cc(C(C)(C)C)oc1CN	inactive	–
O=c1[nH]c2cc3c(cc2cc1C(c1nnnn1Cc1ccccc1)N1CCCCCC1)OCCO3 (stereo not drawn)	inactive	–
CCC1S/C(=C(\C#N)C(=O)NCc2ccco2)N(c2ccc(Br)cc2)C1=O (stereo not drawn)	inactive	–
O=C(Nc1ccon1)c1ccc(N2CCCCC2)c([N+](=O)[O-])c1	inconclusive: 12.6 µM [activator, single point]	–
COc1cc(C=O)ccc1OCCCCOc1ccccc1[N+](=O)[O-]	inconclusive: 12.6 µM [activator, partial curve]	–

Structure (SMILES)	Potency	growth rescue (activation)
S=C(c1ccc(-c2cc(Cl)ccc2Cl)o1)N1CCCCC1	inactive	–
COc1ccc(-n2c(SCC(=O)NC3CCCCC3)nc3c([nH]c4ccccc43)c2=O)cc1	inactive	–
Cc1ccc(Cl)cc1-n1ncc2c(NCCC3=CCCCC3)ncnc21	active: 35.5 µM	–
CCCCNC(=O)c1cc(-c2ccc(Cl)c(Cl)c2)on1	inconclusive: 0.316 µM [activator, full curve, poor fit]	–
Cn1c(=O)c2c(-c3ccccc3Br)n(Cc3ccccc3)cc2n(C)c1=O	active: 22.4 µM	–
Cc1nn(-c2ccccc2)c(C)c1/C=C/C(=O)OCC(=O)Nc1ccc(S(N)(=O)=O)cc1	inactive	–
COc1ccc(CCNC(=O)COC(=O)c2ccc(Br)o2)cc1	inconclusive: 35.5 µM [activator, single point]	–
CC(=O)Nc1ccc(NC(=O)c2nc(SCc3ccccc3C)ncc2Cl)cc1	inconclusive: 28.2 µM [activator, partial curve]	–
COc1cccc(OCc2cc(=O)n3cc(C)sc3n2)c1	inconclusive: 10 µM [activator, partial curve]	–
O=C(NN1CCOCC1)c1ccccc1NS(=O)(=O)c1ccc(F)cc1F	inconclusive: 3.16 µM [activator, partial curve]	–
NC(=S)Cc1ccc(Cl)cc1Cl	active: 12.6 µM	–
CCN(CC(=O)Nc1c(F)cccc1F)C(=O)/C=C/c1ccc(Br)s1	inconclusive: 3.98 µM [activator, full curve]	–
Cc1ccc(-c2nc(S(=O)(=O)c3ccc(C)cc3)c(N3CCCCC3)o2)cc1	inactive	–
Cn1c(SCc2nnc(-c3ccccc3)o2)nc2ccccc21	inconclusive: 14.1 µM [activator, partial curve]	–
COc1ccc([C@@H]2[C@@H]3C(=O)N(C(C)(C)C)C(=O)[C@@H]3[C@]3(Cc4ccccc4)C(=O)N(c4ccc(Br)cc4)C(=O)N23)cc1	inactive	–
CCOc1cc(/C=C2\CCn3c2nc2cc(Cl)ccc2c3=O)ccc1O	inactive	–
CCOc1cc(S(=O)(=O)NCc2ccccc2)ccc1F	inconclusive: 35.5 µM [activator, partial curve]	–
O=C(NNc1ccc(C2CCCCC2)cc1)C(O)(c1ccccc1)c1cccs1 (stereo not drawn)	inconclusive: 20 µM [activator, single point]	–
Cc1cccc(Cc2c(C)nc3nc(SCc4cccc(F)c4)nn3c2C)c1	inactive	–
CC(C)N=c1scc(-c2ccco2)n1/N=C/c1ccc(O)c(O)c1	–	inconclusive: -85.2% [activator]
COc1ccc(-c2nnc(SCC(=O)c3ccc(NC(C)=O)cc3)o2)cc1OC	inactive	–
CSc1ccc(C2c3[nH]c4ccccc4c3CCN2C(=O)CCC2CCCC2)cc1 (stereo not drawn)	inactive	–
COc1cc(-c2cc(=O)c3ccccc3o2)ccc1O	inconclusive: 35.5 µM [activator, single point]	–
